Measurements taken from PubChem BioAssay AID1460 (National Center for Advancing Translational Sciences (NCATS), 2008).
In all, about 270,000 compounds went through this assay and about 5,800 (2.1%) were called active. The inconclusive results got no clear call from the source; some entries with a clear call stand among them for comparison. Calls follow the shape of the dose curve; as a rule, active = well fitted inhibition curve with a large enough effect; inconclusive = small, poorly fitted or top-dose-only effect; inactive = flat fitted curve, though single readings scatter. A potency beside an inconclusive call is a rough fit, not a confirmed value.

molecular target: Microtubule-associated protein tau (Homo sapiens) (UniProt P10636); test: qHTS for Inhibitors of Tau Fibril Formation, Thioflavin T Binding; conditions: recombinant tau K18 P301L (four-repeat tau fragment), heparin-induced fibrillization, ThT fluorescence; series mostly up to 57.4 µM; also: nearly all actives have a fitted effect of over 55% in size
UniProt P10636, sequence (P10636 whole entry, looked up, the tested form may be a part): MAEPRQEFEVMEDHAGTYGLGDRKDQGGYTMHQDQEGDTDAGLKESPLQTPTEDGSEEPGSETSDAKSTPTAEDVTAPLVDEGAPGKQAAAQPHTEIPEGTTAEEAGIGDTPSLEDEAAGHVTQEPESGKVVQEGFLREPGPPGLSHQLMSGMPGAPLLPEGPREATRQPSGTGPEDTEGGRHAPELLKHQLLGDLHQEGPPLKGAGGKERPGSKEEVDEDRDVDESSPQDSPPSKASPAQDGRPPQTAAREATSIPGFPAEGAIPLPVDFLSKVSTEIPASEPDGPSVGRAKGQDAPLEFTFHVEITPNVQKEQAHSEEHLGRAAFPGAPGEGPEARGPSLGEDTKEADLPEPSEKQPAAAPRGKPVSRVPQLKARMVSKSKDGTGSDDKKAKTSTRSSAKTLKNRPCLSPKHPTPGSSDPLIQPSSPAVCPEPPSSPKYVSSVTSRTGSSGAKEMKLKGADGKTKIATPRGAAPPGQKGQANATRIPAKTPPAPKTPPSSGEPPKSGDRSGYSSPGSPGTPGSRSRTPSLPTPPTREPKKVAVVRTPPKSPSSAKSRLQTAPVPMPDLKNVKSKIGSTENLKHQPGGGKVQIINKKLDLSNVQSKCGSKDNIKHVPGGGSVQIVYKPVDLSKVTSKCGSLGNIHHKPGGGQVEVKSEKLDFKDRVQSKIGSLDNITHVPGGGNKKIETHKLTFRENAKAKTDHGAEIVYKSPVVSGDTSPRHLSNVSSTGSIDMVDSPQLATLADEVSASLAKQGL
How it was run: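 K18 P301L tau (15 uM + 0.24 uM Alexa 594-tagged), heparin 20 uM, NaOAc pH 7, 6 h 37 C; ThT 30 uM, 1 h RT, ex 450/em 510 nm.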
Potency is read from the fitted curve at half-maximal effect; tags tell the direction and shape of the fitted curve.

SMILES	Potency
Cc1cccc(N2CCN(c3ccc(NC(=O)c4ccccc4)cc3C(=O)O)CC2C)c1 (configuration not stated)	inconclusive: 12.6 µM [inhibitor, partial curve, poor fit]
O=C(CCc1nnc(-c2ccsc2)o1)N1CCc2c(Cl)cccc2C1	inconclusive: 25.1 µM [inhibitor, single point]
COc1cc(/C=N/NC(=O)c2cnn3c(C)cc(-c4ccccc4)nc23)ccc1O	inconclusive: 5.62 µM [inhibitor, partial curve, poor fit]
CC(C)C(NC(=O)C(NC(=O)C1O[C@@H]2OC(C)(C)O[C@@H]2[C@H]2OC(C)(C)O[C@@H]12)C(C)C)C(=O)O (some centres not stated)	inactive
FC(F)(F)c1ccc2c(c1)N1CCCC1CN2 (configuration not stated)	active: 17.8 µM
N#CC1=C(N)Oc2c(sc3ccccc23)C1c1ccco1 (configuration not stated)	active: 15.8 µM
CCn1c(C(=O)N2CCCC(C(=O)N3CCN(c4ccccc4)CC3)C2)cc2sccc21 (configuration not stated)	inconclusive: 39.8 µM [inhibitor, single point]
C=CCn1c(NC(C)c2cc(Cl)ccc2O)nc2ccccc21 (configuration not stated)	inactive
CCc1ccccc1NC(=O)COc1ccc2oc(-c3ccc(OC)cc3)cc(=O)c2c1	inconclusive: 1.41 µM [inhibitor, full curve]
Cc1ccc(NC(=O)CCC(=O)OCC(=O)c2ccc(-c3ccccc3)cc2)cc1	inconclusive: 1 µM [inhibitor, partial curve]
CC1=C(C(=O)Nc2ccccc2)C(c2ccc(C)o2)n2c(s/c(=C/c3ccccc3)c2=O)=N1 (configuration not stated)	inconclusive: 12.6 µM [inhibitor, partial curve]
O=C(CCCn1c(=S)[nH]c2cc3c(cc2c1=O)OCO3)N1CCN(c2ccccn2)CC1	inconclusive: 0.708 µM [inhibitor, partial curve]
NS(=O)(=O)c1ccc(NCc2ccccc2OCc2ccccc2F)cc1	inactive
CC1CCCC/C1=N\NC(=S)Nc1ccccc1 (configuration not stated)	inconclusive: 15.8 µM [inhibitor, partial curve]
CCc1ccc(NC(=O)N2CCC(N3CCN(Cc4ccc(C)cc4)C(=O)C3=O)CC2)cc1	inactive
Cc1ccc(S(=O)(=O)NCC(Nc2cccc(Cl)c2)c2ccccc2)cc1 (configuration not stated)	inactive
CCOC(=O)c1c(C)[nH]c(C=Nc2ccccc2)c1O	inconclusive: 28.2 µM [inhibitor, single point]
COc1cc(OC)c([N+](=O)[O-])cc1/C=N/NC(=O)c1ccncc1	active: 25.1 µM
O=S(=O)(c1ccc2nc(Nc3cccc(F)c3)ccc2c1)N1CCCC1	inconclusive: 3.98 µM [activator, partial curve, poor fit]
Cc1nc(SCc2ccc(O)c([N+](=O)[O-])c2)c([N+](=O)[O-])[nH]1	inconclusive: 17.8 µM [inhibitor, partial curve, poor fit]
COc1ccc(C(C#N)N2N=C(c3ccccc3)CC2c2ccccc2)cc1OC (configuration not stated)	inconclusive: 20 µM [inhibitor, partial curve]
O=C(c1cc(-c2ccccc2)on1)N1CCCC1	inactive
Cc1cc(C(=O)N/N=C/c2ccccc2)c(C)o1	inconclusive: 17.8 µM [inhibitor, partial curve]
Cc1ccccc1/C=N/N1CCN(c2ccccc2)CC1	inconclusive: 14.1 µM [inhibitor, partial curve]

SMILES	Potency
O=C(Cc1ccccc1)Nc1nnc2n1CCS2	inactive
CCN(Cc1ccccc1)Cc1c(O)ccc2oc(C)c(C(=O)Nc3ccccc3C)c12	inactive
Cc1ccnc(N2C(=O)c3ccccc3C2O)c1 (configuration not stated)	inactive
O=C(OCc1nc2ccccc2s1)c1cc2ccccc2oc1=O	inconclusive: 12.6 µM [inhibitor, partial curve]
COc1ccccc1CN1C(=O)C(=O)c2cccc(C)c21	inactive
Cc1ccc(S(=O)(=O)NCC(c2ccc(N(C)C)cc2)N2CCc3ccccc32)cc1 (configuration not stated)	inconclusive: 8.91 µM [inhibitor, partial curve]
c1ccc(-c2onc3cc4c(cc23)OCCO4)cc1	inconclusive: 11.2 µM [inhibitor, partial curve]
O=C(c1cc2sccc2n1Cc1ccccc1)N1CCc2ccccc21	inactive
Cc1cccc2sc(NNC(=O)C3=COCCO3)nc12	inactive
O=c1cc(-c2ccccc2)n2c(SCc3ccc(Br)cc3)nnc2[nH]1	inconclusive: 12.6 µM [inhibitor, partial curve]
COc1ccccc1-c1coc2cc(OCC(=O)OCc3ccccc3)ccc2c1=O	inconclusive: 17.8 µM [inhibitor, single point]
CC1(C)CC(=O)C(C(c2ccco2)C2C(=O)CC(C)(C)CC2=O)C(=O)C1	active: 28.2 µM
CCn1cc(/C=N/NC(=O)c2cc3c(ccc4ccccc43)o2)c2ccccc21	inconclusive: 5.01 µM [inhibitor, partial curve]
CC1=CC(C)(C)Nc2ccc(OC(=O)CN3C(=O)CCC3=O)cc21	inconclusive: 15.8 µM [inhibitor, partial curve]
Cc1ccccc1N(CC(=O)NCCSCc1ccco1)S(C)(=O)=O	inactive
CC(=O)C1C(=O)C=C(c2cccs2)CC1c1ccccc1 (configuration not stated)	inconclusive: 28.2 µM [inhibitor, single point]
CCOc1ccccc1NC(=O)CSC1=Nc2ccccc2C2=NC(CC(=O)NCc3ccc4c(c3)OCO4)C(=O)N12 (configuration not stated)	inconclusive: 31.6 µM [inhibitor, partial curve]
CC(C)(C)NC(=O)c1cccc2c1C(=O)c1ccccc1-2	inconclusive: 2.51 µM [inhibitor, partial curve, poor fit]
Brc1ccc2c(c1)NC(c1cccnc1)=NC(c1ccccc1)=N2	inconclusive: 15.8 µM [inhibitor, partial curve]
COC(=O)c1ccc(-c2noc(CN(Cc3nccn3C)C(C)C)n2)cc1	inactive
O=c1oc2ccccc2cc1-c1nc2c(s1)CCCC2	inconclusive: 12.6 µM [inhibitor, partial curve, poor fit]
COc1ccc(/C=C/C(=O)OCc2cccc([N+](=O)[O-])c2)cc1	inconclusive: 22.4 µM [inhibitor, partial curve, poor fit]
COc1ccc(-c2ccc(CCC(=O)O)n2-c2ccc(O)cc2)cc1	inconclusive: 17.8 µM [inhibitor, partial curve]
Cc1nn2c(=O)cc(COc3ccc(/C=C(\C#N)C(=O)Nc4ccccc4)cc3Cl)nc2s1	inconclusive: 5.62 µM [inhibitor, partial curve]

SMILES	Potency
CC1(C)CC(=O)C(Sc2ccccc2[N+](=O)[O-])=C(O)C1	inactive
Cn1cnc([N+](=O)[O-])c1Oc1ccc2ccccc2c1	inconclusive: 14.1 µM [inhibitor, partial curve]
CCOC(=O)N1CCC(=NNC(=O)c2cc3ccccc3cc2O)CC1	inconclusive: 7.08 µM [inhibitor, partial curve]
Cc1ccc(NCc2ccccc2O)cc1C	inconclusive: 22.4 µM [inhibitor, partial curve]
CCN(CC)c1ccc(NC(=O)C2CC3CCC2C3)cc1 (configuration not stated)	inconclusive: 25.1 µM [inhibitor, partial curve, poor fit]
CCc1ccccc1NC(=O)CSc1nnc(COc2ccccc2Cl)o1	inactive
CCN(CCCNC(=O)CCn1c(=O)[nH]c2ccccc2c1=O)c1cccc(C)c1	inconclusive: 31.6 µM [inhibitor, single point]
COc1cc(OC)cc(C(=O)N=c2sc3ccccc3n2C)c1	inconclusive: 2.24 µM [inhibitor, full curve]
COc1ccc(C(C)=O)cc1CSc1nnc(Nc2ccccc2C)s1	inconclusive: 15.8 µM [inhibitor, single point]
Cc1ccc(CNc2ncnc3onc(C)c23)cc1	inactive
COc1ccccc1NS(=O)(=O)c1cc(N)ccc1N1CCCCC1	inconclusive: 39.8 µM [inhibitor, single point]
COc1ccc(-c2onc(C)c2C)cc1S(=O)(=O)Nc1cc(Cl)ccc1C	inactive
COc1ccccc1N1CCN(C2CCN(S(=O)(=O)c3ccc4ccccc4c3)CC2)CC1	inactive
COc1ccc(/C=N/NC(=O)CN2CCSCC2)cc1C	inactive
CCn1c(=N)c(S(=O)(=O)c2ccc(F)cc2)cc2c(=O)n3ccccc3nc21	inconclusive: 35.5 µM [inhibitor, partial curve]
CCc1nc(N2CCC(C)CC2)c2oc3ccccc3c2n1	inconclusive: 31.6 µM [inhibitor, single point]
COc1ccc(-c2cc3nc(C)cc(N4CC(C)CC(C)C4)n3n2)cc1 (configuration not stated)	inconclusive: 31.6 µM [inhibitor, single point]
COC(=O)c1ccccc1NC(=O)c1cc(CN2CCOCC2)on1	inactive
CCOc1cccc(-c2csc(C3COc4ccccc4O3)n2)c1 (configuration not stated)	inactive
COc1ccc(C2=C(C)C(=NCc3ccc(OC(C)C)cc3)NS2(=O)=O)cc1	inactive
O=C(NCc1ccco1)c1nn2c(C(F)(F)F)cc(-c3cccs3)nc2c1Br	active: 14.1 µM
Cc1ccc2nc(SCC(=O)c3ccc4c(c3)NC(=O)CO4)[nH]c2c1	inconclusive: 4.47 µM [inhibitor, partial curve]
CCCCOc1ccc(CNC(=O)C2CCCN(c3nnc(-n4c(C)ccc4C)s3)C2)cc1 (configuration not stated)	inconclusive: 22.4 µM [inhibitor, single point]
Cc1ccc(-c2csc(-c3c[nH]c4ccccc34)n2)cc1	inconclusive: 5.01 µM [inhibitor, partial curve]
